# Source: PubChem BioAssay AID488969 (Vanderbilt High Throughput Screening Facility, 2010)
# In all, about 110,000 compounds were measured (“z-score”: median about -0.1, highest 2% from about 2 on). The list shows a part of the results.
# Molecular target: Metabotropic glutamate receptor 8 (Rattus norvegicus) (UniProt P70579)
# Experiment: rat mGluR8 modulators via GIRK flux, primary screen, cell-based, thallium flux, HTS (AID 488969)
# Conditions: HEK293 rat mGluR8, GIRK (G protein-gated inwardly rectifying potassium channel) thallium flux, FluoZin2; at 10 µM; stronger effect = higher value; submaximal glutamate (EC20) added with thallium
# UniProt P70579, sequence (P70579 whole entry, looked up): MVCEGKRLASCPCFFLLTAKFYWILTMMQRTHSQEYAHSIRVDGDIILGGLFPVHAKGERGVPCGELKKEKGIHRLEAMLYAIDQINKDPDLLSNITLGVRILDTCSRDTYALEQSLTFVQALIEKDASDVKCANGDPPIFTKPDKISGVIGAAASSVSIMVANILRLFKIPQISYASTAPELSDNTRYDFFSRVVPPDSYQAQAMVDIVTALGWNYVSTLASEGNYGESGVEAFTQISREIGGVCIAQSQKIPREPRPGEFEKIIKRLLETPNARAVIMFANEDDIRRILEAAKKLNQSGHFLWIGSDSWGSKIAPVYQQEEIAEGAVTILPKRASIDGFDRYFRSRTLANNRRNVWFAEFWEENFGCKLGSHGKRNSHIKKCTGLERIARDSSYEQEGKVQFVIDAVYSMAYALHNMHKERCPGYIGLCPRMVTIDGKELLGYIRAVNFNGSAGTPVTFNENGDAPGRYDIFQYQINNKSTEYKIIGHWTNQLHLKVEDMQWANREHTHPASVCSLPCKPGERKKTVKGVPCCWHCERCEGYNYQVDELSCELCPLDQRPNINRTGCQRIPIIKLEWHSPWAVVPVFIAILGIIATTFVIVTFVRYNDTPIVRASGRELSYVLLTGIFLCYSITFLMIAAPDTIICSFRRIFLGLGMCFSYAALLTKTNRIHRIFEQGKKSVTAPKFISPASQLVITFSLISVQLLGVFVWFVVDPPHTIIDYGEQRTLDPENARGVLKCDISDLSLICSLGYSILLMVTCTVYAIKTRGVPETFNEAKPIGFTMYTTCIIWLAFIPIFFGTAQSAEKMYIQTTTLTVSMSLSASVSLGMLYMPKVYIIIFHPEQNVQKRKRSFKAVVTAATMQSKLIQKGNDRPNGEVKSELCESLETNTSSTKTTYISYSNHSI
row,SMILES,z-score
1,Cc1ccccc1-n1c(=O)cc(NCC2CCCO2)[nH]c1=O (stereo unspecified),-0.131
2,CCOc1ccc(-c2ccc(/C=C3/C(=N)N4C(C)=CSC4=NC3=O)o2)c([N+](=O)[O-])c1,0.967
3,CCc1ccc(Nc2nnc(SCn3nnc4ccccc4c3=O)s2)cc1,-0.292
4,CCOc1ccc(NC(=O)c2cccc(OC(=S)N3CCC(C)CC3)c2)cc1,-0.531
5,Cc1ccc(C(=O)Nc2ccccc2-c2ccccc2)o1,-0.497
6,COc1ccc(/C=C/C(=O)NC(C)(C)C)cc1S(=O)(=O)N1CCOCC1,0.164
7,O=C(COC(=O)C1CC1)c1c[nH]c2ccccc12,0.139
8,COc1ccc(CNC(C)C2COc3ccccc3O2)c(OC)c1 (stereo unspecified),0.00937
9,CCOC(=O)CNC(=O)COc1ccc(Cl)cc1Br,-2.87
10,COC(=O)C1=C(C)N(C)C(=O)NC1c1ccccc1 (stereo unspecified),-0.573
11,CN(CCNC(=O)c1cc2c(=O)n(C)c3ccccc3c2n1C)Cc1ccccc1,2.77
12,CCn1c2ccccc2c2cc(NC(C)=O)ccc21,-0.326
13,Cc1cc(C)nc(SCC(=O)Nc2ccc(S(=O)(=O)Nc3nccs3)cc2)n1,-1.49
14,O=C(Oc1ccc(OC(=O)N2CCCCC2)cc1)c1ccccc1,0.0923
15,CCOc1ccc2nc(SCC(=O)N(C)C)[nH]c2c1,-0.0593
16,COc1ccc(OC)c(C(=O)COC(=O)c2cc(C)oc2C)c1,-0.457
17,Cc1nn2c(SCC(=O)c3cccs3)cc(C(C)(C)C)nc2c1-c1ccccc1,-0.127
18,CC(C)CN(CCNC(=O)CC1Oc2ccccc2NC1=O)CC(C)C (stereo unspecified),-0.31
19,O=C(C(c1ccccc1)c1ccccc1)N1CCOCC1,0.121

row,SMILES,z-score
1,O=C(c1cc2ccccc2oc1=O)N(Cc1ccc2c(c1)OCO2)Cc1ccco1,-0.216
2,CSc1nnc(-c2cc3c(-c4ccccc4)nn(C)c3s2)n1C,-0.258
3,COc1ccc(NC(=O)C2CCCN(S(=O)(=O)c3cccc4cccnc34)C2)c(OC)c1 (stereo unspecified),-0.00108
4,Cc1n[nH]c(C)c1CCc1nc2c3ccccc3nc(SCC(N)=O)n2n1,-0.148
5,COc1ccc(-n2c(=O)[nH]cc(C(=O)N3CCc4ccccc43)c2=O)cc1,1.3
6,Cc1nn(Cc2ccc(F)cc2)c(C)c1NC(=O)c1cccnc1Cl,0.0276
7,CC(Sc1ccccn1)C(=O)Nc1ccccc1 (stereo unspecified),-0.408
8,O=C(COc1ccc2ccccc2c1)Nc1ccc2c3c(cccc13)CC2,0.0158
9,Brc1ccc(-c2nnc(-c3ccccc3)o2)o1,0.557
10,CCOC(=O)Cc1c(C)nc2cc(-c3ccc(C(C)(C)C)cc3)[nH]n2c1=O,-0.186
11,COCC(=O)Nc1cccc(Br)c1,0.166
12,Cc1cccc(C)c1NC(=O)Cn1c(=O)n(CCC(=O)NCc2ccco2)c(=O)c2sccc21,-0.176
13,O=C(CSc1nc2ccccc2[nH]1)Nc1nc(-c2cccc(Br)c2)cs1,-0.171
14,O=C(O)CN1CCN(Cc2ccccc2)C1=O,-0.122
15,O=C(NCC(c1cccs1)N1CCOCC1)c1ccccc1NS(=O)(=O)c1ccc(Cl)c([N+](=O)[O-])c1 (stereo unspecified),-0.572
16,CC1=C(C(=O)OC2CCCCCCC2)C(c2cccc(O)c2)NC(=O)N1 (stereo unspecified),0.191
17,Cc1ccc(/C=C/C(=O)N2CCN(c3cccc(C(F)(F)F)c3)CC2)cc1,-0.0624
18,CCN1CCN(Cc2c(O)ccc3c2O/C(=C\C=C\c2ccccc2OC)C3=O)CC1,1.76
19,COc1ccc(OC)c(S(=O)(=O)Nc2ccc(OCC(=O)O)cc2)c1,-0.172

row,SMILES,z-score
1,O=C(/C=C1\NC2(CCCC2)Cc2ccccc21)C(=O)N/N=C/c1ccc(O)c(O)c1,-0.657
2,O=c1c2c(nc(NCCO)n1CC1CCCCC1)-c1ccccc1CC21CCCC1,0.132
3,O=C(NCCc1ccccc1)c1nc2c(nnn2Cc2ccccc2Cl)c(=O)[nH]1,-2.3
4,CCOC(=O)Cc1csc(NC(=O)CSc2nnc(-c3ccncc3)n2Cc2ccco2)n1,-0.608
5,CCOc1ccc(CN2CCN(c3cc(C)nc4c5c(C)cc(C)nc5nn34)CC2)cc1,0.115
6,COc1ccc(-c2ccc(-c3nnc(Cc4ccc(OC)c(OC)c4)o3)cc2)cc1,0.983
7,Cc1sc2nc(-c3cccnc3)nc(Cl)c2c1-c1ccccc1,-0.11
8,N#Cc1nc(-c2ccccc2F)oc1N1CCCC1,-0.139
9,COc1ccc2c(c1)SC1=NCCS(=O)(=O)N12,0.27
10,CC(C)(C)NC(=O)c1ccncc1,-0.0181
11,N#Cc1ccc(-c2csc(NNC(=O)c3ccccc3)n2)cc1,-0.283
12,COc1ccc(C2CC(c3ccc(Cl)cc3Cl)Nc3nc(N)nn32)cc1 (stereo unspecified),1.46
13,CCC(=O)Nc1ccc(NC(=O)C23CC4CC(CC(C4)C2)C3)cn1,-0.0944
14,O=C(Nc1nc2ccccc2[nH]1)C12CC3CC(CC(C3)C1)C2,0.258
15,CC(C(=O)N1CCOCC1)N1C(=O)C2C3CC(C(Br)C3Br)C2C1=O (stereo unspecified),-0.258
16,CCC(CC)C(=O)N(CCc1ccc(OC)cc1)Cc1nc2ccccc2c(=O)[nH]1,-0.378
17,O=c1c2ccccc2c(C=NCCCN2CCOCC2)c(O)n1Cc1ccccc1,-0.181
18,C=C(C)C(C)(C#CCN1CCCC1)OC(C)=O (stereo unspecified),-0.061
